About 14,000 (4.5%) of roughly 310,000 compounds showed an effect of 50% or more. Effects have a minus sign here. The list shows a part of the results.
Target: human ether-à-go-go-related gene (hERG) potassium channel (human, UniProt Q12809)
Assay: primary screen, population patch clamp on CHO cells stably expressing hERG
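Also: peak tail current of the secondary pulse compared with the same well before compound.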

Sequence of human ether-à-go-go-related gene (hERG) potassium channel (Q12809 whole entry, looked up): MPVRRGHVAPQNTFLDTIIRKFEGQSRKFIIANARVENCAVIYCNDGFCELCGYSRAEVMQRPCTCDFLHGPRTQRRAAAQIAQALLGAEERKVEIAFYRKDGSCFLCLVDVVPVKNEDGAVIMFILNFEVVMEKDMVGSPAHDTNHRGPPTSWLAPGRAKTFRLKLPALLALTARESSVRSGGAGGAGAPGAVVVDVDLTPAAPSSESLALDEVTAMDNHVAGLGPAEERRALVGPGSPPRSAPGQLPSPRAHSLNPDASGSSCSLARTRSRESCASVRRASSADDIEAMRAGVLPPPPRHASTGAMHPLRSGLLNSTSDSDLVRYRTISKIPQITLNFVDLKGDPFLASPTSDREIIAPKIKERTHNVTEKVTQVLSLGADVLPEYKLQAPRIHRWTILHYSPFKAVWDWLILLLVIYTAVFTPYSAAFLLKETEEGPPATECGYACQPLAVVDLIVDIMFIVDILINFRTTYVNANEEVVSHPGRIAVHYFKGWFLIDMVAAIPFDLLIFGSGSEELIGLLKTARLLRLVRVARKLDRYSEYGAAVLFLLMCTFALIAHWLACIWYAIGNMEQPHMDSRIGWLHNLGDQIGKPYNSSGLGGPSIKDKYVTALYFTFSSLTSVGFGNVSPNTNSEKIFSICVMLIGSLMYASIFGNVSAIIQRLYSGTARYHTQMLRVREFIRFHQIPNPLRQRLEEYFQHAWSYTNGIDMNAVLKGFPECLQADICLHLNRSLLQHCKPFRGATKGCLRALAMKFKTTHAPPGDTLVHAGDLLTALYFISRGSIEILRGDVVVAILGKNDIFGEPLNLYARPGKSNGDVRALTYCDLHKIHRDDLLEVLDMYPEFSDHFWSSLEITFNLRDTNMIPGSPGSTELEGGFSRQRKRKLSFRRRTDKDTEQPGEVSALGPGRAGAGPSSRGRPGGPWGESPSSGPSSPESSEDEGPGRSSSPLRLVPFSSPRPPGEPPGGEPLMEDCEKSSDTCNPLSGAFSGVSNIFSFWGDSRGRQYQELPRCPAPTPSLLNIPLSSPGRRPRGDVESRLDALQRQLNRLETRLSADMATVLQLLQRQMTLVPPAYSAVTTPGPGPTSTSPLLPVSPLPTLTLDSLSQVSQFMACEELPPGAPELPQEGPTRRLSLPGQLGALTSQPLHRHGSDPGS

Row | SMILES | hERG current change (%, negative = inhibition) at 10uM
1 | COc1ccc(-c2c(C)oc3c(CN4CCN(C)CC4)c(O)ccc3c2=O)cc1 | 13%
2 | Cc1ccc(S(=O)(=O)N2CCN(C(=O)CSc3n[nH]c(N)n3)CC2)c(C)c1 | 6.31%
3 | CCN1C(=O)/C(=C\c2ccc3c(c2)OCO3)C(C(=O)OC)=C1C | 2.26%
4 | COc1cccc(N/C=C/C(=O)c2ccc(C)cc2)c1 | 2.4%
5 | CC(/C=N/NC(=O)c1cc(-c2ccc(Cl)cc2)nc2ccccc12)=C\c1ccco1 | 38.4%
6 | CCOC(=O)C(C(=O)OCC)C(Nc1ccc(Br)cc1)c1ccccc1 (centres unmarked) | -6.82%
7 | Cc1noc(C)c1COc1ccc(C(=O)NCC2CCCO2)cc1 (centres unmarked) | 7.53%
8 | Cc1nccn1-c1c([N+](=O)[O-])c(=O)n(C)c2ccccc12 | 4.46%
9 | Cc1ccc(Cl)cc1N(CC(=O)N1CCCCCC1)S(C)(=O)=O | -7.3%
10 | CCC(C)C(NC(C)=O)C(=O)NC(=O)NC(c1ccccc1)c1ccccc1 (centres unmarked) | -15.8%
11 | O=C(NC1CCSc2ccccc21)c1c(F)cccc1Cl (centres unmarked) | 13.8%
12 | CN1C2CCC1CC(NS(=O)(=O)c1cc(Cl)c(Cl)cc1Cl)C2 (centres unmarked) | -27.1%
13 | Nc1nc(N)c(N=Nc2ccc(C(=O)O)cc2)c(N)n1 | 23%
14 | Cc1c(C(=O)NNC(=O)c2ccccc2O)oc2ccc(Br)cc12 | 8.46%
15 | Cc1ccc(-c2noc(CCC(=O)NCCCN3CCN(c4ccc(F)cc4)CC3)n2)cc1 | -66.8%
16 | CC1CCCN(CCCOc2ccc(Cl)cc2Br)C1.O=C(O)C(=O)O (centres unmarked) | -70.5%
17 | Cc1cc(C(=O)NN=C2CCCCCCC2)c2ccccc2n1 | 5.42%
18 | Fc1ccccc1N1CCN(Cc2cccnc2)CC1 | -0.61%
19 | COc1ccc(NC(=O)C2Cc3cccc(OC)c3O/C2=N\O)cc1 (centres unmarked) | 6.66%
20 | COc1ccc(NC(=S)NN2C(C)CCCC2C)cc1 (centres unmarked) | 16.6%
21 | COc1cccc(/C=N/NC(=O)c2c(C)nc3ccc(Br)cn23)c1 | -6.71%
22 | Cc1nc2ccc(S(=O)(=O)NCC(=O)NCc3ccc(Cl)cc3)cc2s1 | 17.4%
23 | CS(=O)(=O)N(CC(=O)N1CCCC1)c1cc(Cl)ccc1Cl | 15.6%

Row | SMILES | hERG current change (%, negative = inhibition) at 10uM
24 | C/C(=N\Nc1nc(N2CCCCC2)nc(N2CCOCC2)n1)c1cccs1 | 11.4%
25 | CCC1CCc2c(sc(NC(=O)c3cccnc3)c2C(N)=O)C1 (centres unmarked) | 17.9%
26 | Cc1cc(C)c2c(CC(=O)NNC(=O)c3ccccc3)coc2c1 | 20.1%
27 | Cc1cc(OCc2nn[nH]n2)c2c(C)c(CC(=O)O)c(=O)oc2c1 | 14.8%
28 | CCCCNC(=S)NNC(=O)c1ccoc1C | 4.26%
29 | COCCNC(=O)/C(C#N)=C\c1ccc(CNC(=O)C(=O)Nc2ccc(C)c(C)c2)o1 | -30.8%
30 | Cc1nccn1CC1CCc2c(c3ccccc3n2C)C1=O.Cl.O (centres unmarked) | -35.9%
31 | CCC(Oc1ccc(C)cc1)C(=O)Nc1ccc(S(=O)(=O)Nc2cc(C)on2)cc1 (centres unmarked) | 21.9%
32 | O=C1ON=C(c2ccccc2)/C1=C\c1ccco1 | -15.8%
33 | CC1=NN(C(=O)c2c(Br)c(C)nn2C)C(O)(C(F)(F)F)C1 (centres unmarked) | -5.1%
34 | Cc1ccccc1OC(=O)c1cccnc1 | -2.11%
35 | COC(=O)CN1C(c2ccccc2O)Nc2ccc(Br)cc2C1c1ccccc1 (centres unmarked) | -12.9%
36 | S=c1oc(-c2ccncc2)nn1CCc1ccncc1 | 13%
37 | Cc1ccc(OCCCn2c(=O)oc3ccccc32)cc1 | -5.25%
38 | Cc1nnc(SCC(=O)NCc2ccccc2Cl)n(N)c1=O | -11.5%
39 | CC12COC3(C(=O)Nc4ccc(F)cc4)CC1CCC32C (centres unmarked) | -18%
40 | O=C(Cc1c[nH]c2ccccc12)NCc1ccc(Cl)cc1 | 14.2%
41 | COc1ccc(Cl)cc1C(=O)Nc1nc2ccccc2[nH]1 | 23.8%
42 | Cc1ccc(Cn2c([N+](=O)[O-])cnc2C)cc1 | -3.73%
43 | Cc1ccc(NS(=O)(=O)c2cc(Br)cnc2N)c(Cl)c1 | -0.706%
44 | CC(C)c1ccc(NC2CCCN(C(=O)c3ccoc3)C2)cc1 (centres unmarked) | 4.11%
45 | COc1ccccc1CCN=C(N)NS(=O)(=O)c1ccccc1 | -10.1%
46 | CCCCOC(=O)c1ccc(OC(=O)c2cccnc2)cc1 | 1.05%

Row | SMILES | hERG current change (%, negative = inhibition) at 10uM
47 | CC(=O)Nc1ccc(NC(=O)CS(=O)(=O)Cc2ccccc2)cc1 | -4.5%
48 | CC(C)NC(=O)CSc1ncccc1-c1nc2ccccc2[nH]1 | -17.1%
49 | COc1cc(/C=N/NC(=O)COc2cccc(F)c2)ccc1OS(=O)(=O)c1ccc(C)cc1 | 5.42%
50 | Cc1ccc(C(=O)N2CCN(c3ccccc3F)CC2)cc1S(=O)(=O)N1CCOCC1 | -3.41%
51 | Cl.OCCN1CCN(CCOc2ccccc2-c2ccccc2)CC1 | -24.1%
52 | COc1ccc2sc(C)[n+](C)c2c1.[I-] | 22.9%
53 | Cc1ccc(N2C(=O)N3[C@H](c4ccc(Br)cc4)[C@@H]4C(=O)N(C(C)(C)C)C(=O)[C@@H]4[C@]3(C)C2=O)cc1 | -0.635%
54 | CCCn1c(SC/C(O)=C(\C#N)c2nc3ccccc3[nH]2)n[nH]c1=O | 14.8%
55 | COc1ccc(OC)c(N=Cc2c(O)[nH]c(=O)[nH]c2=O)c1 | 16.2%
56 | COc1cc(COCC(O)CN2CCc3ccccc3C2)cc(OC)c1OC.Cl (centres unmarked) | -21.7%
57 | CC(C)(C)n1c(O)c(C=Nc2ccc3c(c2)CCC3)c(=O)[nH]c1=O | 0.74%
58 | O=C(CCN=C1NS(=O)(=O)c2ccccc21)OCC(=O)c1ccccc1 | -26.9%
59 | CC(C)(C)NC(=O)COC(=O)c1cncc(Br)c1 | 8.7%
60 | CC(/C=C1\SC(=O)N(CC(=O)Nc2cccc(O)c2)C1=O)=C\c1ccccc1 | 18.6%
61 | Cc1ccccc1Cn1c(CN2CCN(c3ccc(F)cc3)CC2)nc2c1c(=O)n(C)c(=O)n2C | -39.7%
62 | COCCn1c(=NC(=O)c2ccc3c(c2)OCCO3)sc2cc(S(N)(=O)=O)ccc21 | 4.59%
63 | CCCCn1c(N)c(N(CCOC)C(=O)CSCC(=O)Nc2cccc(C)c2)c(=O)[nH]c1=O | 11.5%
64 | CCN(CC)S(=O)(=O)c1ccc(Nc2ccc(-c3ccc4c(c3)OCCO4)nn2)cc1 | 10.9%
65 | Cn1ccsc1=NC(=O)c1cccc(OC(F)F)c1 | -28.4%
66 | CC(=O)NC1(c2ccc(F)cc2)CCN(C(=O)c2c(F)cccc2F)CC1 | 6.96%
67 | COc1ccccc1C(=O)Nc1cccnc1 | 6.75%
68 | Cc1cc[n+](C2=C([O-])c3ccccc3C(=O)/C2=N\S(=O)(=O)c2cccs2)cc1C | -16.6%
69 | COC(=O)c1cnn2c3c(c(C)nc12)CCCC3 | 1.88%

Row | SMILES | hERG current change (%, negative = inhibition) at 10uM
70 | O=C(Nc1ccn(Cc2ccccc2F)n1)c1ccc(COc2ccc(Cl)cc2Cl)o1 | 13.6%
71 | COc1cc(Cl)c(C)cc1NC(=O)c1ccc2c(SCC(=O)O)c3c(nc2c1)CCCC3 | 24.3%
72 | COc1cccc(COC(=O)CCNC(=O)c2ccc(Br)cc2)c1OC | -13.6%
73 | CC(C)C(C)(NC(=O)c1cccn(Cc2ccc3c(c2)OC(F)(F)O3)c1=O)C(N)=O (centres unmarked) | -3.89%
74 | O=C(CCN1C(=O)c2ccccc2S1(=O)=O)Nc1cccc(F)c1 | 4.62%
75 | CCN(CC)CCNC(=O)c1ccc(-n2c(C)cc3c2CCCC3=O)cc1 | 9.62%
76 | Cc1cc(-c2ccc(C)c(S(=O)(=O)NCCCN3CCN(c4ccccc4F)CC3)c2)on1 | 10.3%
77 | COC(=O)c1[nH]c2ccccc2c1NC(=O)CNC1CCCCC1 | 7.25%
78 | O=C(NCC(c1ccco1)N1CCCCC1)c1cccc(NS(=O)(=O)c2ccc(Br)cc2)c1 (centres unmarked) | -39.1%
79 | CCn1c2c(c3cc(Cl)ccc31)CCCC2=O | 3.71%
80 | COc1ccc(-c2nc3ccccc3o2)cc1NC(=O)CSc1ccc(Cl)cc1 | 34.8%
81 | N=C(SC1CC(=O)N(c2ccc(F)cc2)C1=O)N1N=C(c2ccccc2)CC1c1ccccc1 (centres unmarked) | 42.4%
82 | O=C(CNCc1ccco1)Nc1cccc(S(=O)(=O)N2CCCCC2)c1.O=C(O)C(=O)O | -13.1%
83 | CCn1c(CC(=O)Nc2ccccc2)nnc1SCC(=O)NC1CCCC1 | -0.93%
84 | C/C(=N/Nc1ccc([N+](=O)[O-])cc1)c1ccc(C)cc1C | -5.26%
85 | c1ccc(-c2csc(Nc3ccccn3)n2)cc1 | 4.69%
86 | O=c1c(Cl)c(NCCO)ncn1-c1ccccc1 | 1.88%
87 | O=C(Nc1nc2cc3c(cc2s1)OCO3)c1ccc(N2C(=O)CCC2=O)cc1 | 12.2%
88 | CC(C)=CC1C(C(=O)Nc2ccc(S(=O)(=O)N3CCOCC3)cc2)C1(C)C (centres unmarked) | -6.44%
89 | [Br-].c1ccc(C[n+]2csc3ccccc32)cc1 | 16.1%

— paper PMC4336329 (PLoS ONE, 2015)
